About 14,000 (4.5%) of roughly 310,000 compounds showed an effect of 50% or more. The effect is printed as a negative number. This is one part of the list.
target: human ether-à-go-go-related gene (hERG) potassium channel (human, UniProt Q12809); assay: primary screen, population patch clamp on CHO cells stably expressing hERG
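Further: peak tail current of the secondary pulse compared with the same well before compound.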

Chain of human ether-à-go-go-related gene (hERG) potassium channel (Q12809 whole entry, looked up): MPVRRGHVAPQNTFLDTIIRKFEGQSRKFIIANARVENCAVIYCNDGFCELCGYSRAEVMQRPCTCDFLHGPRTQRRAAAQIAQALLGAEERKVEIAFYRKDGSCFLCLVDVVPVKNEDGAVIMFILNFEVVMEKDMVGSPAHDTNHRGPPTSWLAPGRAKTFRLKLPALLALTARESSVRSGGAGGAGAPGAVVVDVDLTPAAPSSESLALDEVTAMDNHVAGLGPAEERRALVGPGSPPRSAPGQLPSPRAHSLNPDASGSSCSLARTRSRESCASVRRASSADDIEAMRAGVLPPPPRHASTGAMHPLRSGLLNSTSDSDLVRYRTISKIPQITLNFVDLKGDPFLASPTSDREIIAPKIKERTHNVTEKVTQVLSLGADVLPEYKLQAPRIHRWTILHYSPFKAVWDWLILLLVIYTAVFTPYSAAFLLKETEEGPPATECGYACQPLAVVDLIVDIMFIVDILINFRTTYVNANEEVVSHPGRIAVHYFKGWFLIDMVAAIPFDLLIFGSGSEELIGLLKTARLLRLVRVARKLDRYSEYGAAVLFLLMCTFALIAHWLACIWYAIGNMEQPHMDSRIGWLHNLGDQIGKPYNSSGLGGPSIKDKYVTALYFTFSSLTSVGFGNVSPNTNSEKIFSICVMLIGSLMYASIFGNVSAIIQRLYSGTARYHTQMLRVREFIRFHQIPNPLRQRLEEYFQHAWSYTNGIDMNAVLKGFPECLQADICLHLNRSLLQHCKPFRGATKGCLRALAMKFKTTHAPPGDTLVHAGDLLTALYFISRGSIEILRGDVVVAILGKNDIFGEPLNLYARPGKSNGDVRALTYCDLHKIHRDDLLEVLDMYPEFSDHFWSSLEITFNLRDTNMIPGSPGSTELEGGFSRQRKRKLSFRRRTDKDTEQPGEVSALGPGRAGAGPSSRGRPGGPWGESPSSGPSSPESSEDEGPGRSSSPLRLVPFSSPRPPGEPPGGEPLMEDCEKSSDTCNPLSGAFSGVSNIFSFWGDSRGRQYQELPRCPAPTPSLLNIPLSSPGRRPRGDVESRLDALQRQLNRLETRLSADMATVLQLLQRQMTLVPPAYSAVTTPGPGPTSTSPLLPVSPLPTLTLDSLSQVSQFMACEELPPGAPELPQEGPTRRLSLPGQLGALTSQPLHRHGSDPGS

Row | SMILES | hERG current change (%, negative = inhibition) at 10uM [%]
1 | COc1ccc(OCC(=O)NCCS(=O)(=O)N2CCN(c3ccc(F)cc3)CC2)cc1 | -8.69
2 | Cn1c(-c2ccc([N+](=O)[O-])cc2)nc2ccccc21 | -1.03
3 | CCC(C)(C)C1CCC2(CC1)NC(=O)N(CC(=O)Nc1nc(-c3ccc(C)cc3)cs1)C2=O (stereo not shown) | 24.1
4 | NC(N)=Nc1nc2ccccc2o1 | 17.8
5 | Br.C/C(CC1CC(COCC(C)C)OC1=O)=N\Nc1nc(-c2ccccc2)cs1 (stereo not shown) | -15.5
6 | CC(=O)N1CCc2c(sc3c2c(=O)n(-c2ccccc2)c(=O)n3Cc2ccccc2Cl)C1 | -24.2
7 | N#Cc1c2n(c3c(=O)[nH]cnc13)CCCC2 | 15
8 | O=c1cc(C(F)F)oc2c1ccc1ccccc12 | -1.55
9 | CCN(CC)c1ccc2c(c1)oc(=O)c1c(Cl)cc(=O)oc12 | 14.8
10 | Cc1ccc2c(c1)c(-c1ccccc1)nc1nnnn12 | -10.5
11 | CCN1C(=O)[C@H]2[C@@H](c3ccc(-c4ccc(F)cc4)cc3)N[C@@](CC(C)C)(C(=O)OC)[C@H]2C1=O.O=C(O)C(F)(F)F | 0.854
12 | Cc1nnc(Sc2c(N)n(C)c(=O)[nH]c2=O)s1 | -8.89
13 | CCOC(=O)C(=Cc1ccc(-n2ccnc2)cc1)C(=O)OCC | -30.8
14 | CC(C)c1nnc(NC(=O)CC(C)c2ccccc2)s1 (stereo not shown) | 1.39
15 | CCOC(=O)CNc1nc(-c2ccncc2)nc2ccccc12 | 4.79
16 | CCOC(=O)C(CC(=O)O)NCc1ccco1 (stereo not shown) | 17.4
17 | CCCSc1nnc(N)s1 | 24.6
18 | Cc1ccc(CN(C)CC(=O)Nc2ccc3c(c2)CCC3)cc1 | 20.3
19 | Cc1ccc(S(=O)(=O)N2CCOCC2)cc1NC(=O)COC(=O)c1ccc2c(c1)OCCO2 | 6.92
20 | CC(C)NC(=O)c1ccccc1NC(=O)C(C)Oc1ccccc1 (stereo not shown) | 0.199
21 | O=C(Cc1ccccc1)NCCSCc1ccccc1 | -8.81
22 | COc1ccc(OC)c(NC(=O)CSc2nc3[nH]c(=O)cc(O)c3s2)c1 | 22.9
23 | Cc1c(O)nc(SCC(=O)Nc2cccc(C(F)(F)F)c2)n(-c2ccccc2)c1=O | 30.2

Row | SMILES | hERG current change (%, negative = inhibition) at 10uM [%]
24 | O=C(c1cc(COc2ccc3c(c2)CCCC3)on1)N1CCCC1 | -10.1
25 | CCC1=C(OC(=O)N(CC)CC)N2C(=O)OC(=NCCOC)[C@]2(Cc2ccccc2)[C@H]2C1=CC[C@H]1C(=O)NC(=O)[C@H]12 | 7.92
26 | COCCn1cnc2c1c(=O)n(CC#N)c(=O)n2Cc1ccccc1 | 12.5
27 | CCC1Oc2ccc(C)cc2N(CC(=O)NCc2ccccc2OC)C1=O (stereo not shown) | -0.876
28 | COCC(=O)n1nc(-c2ccccc2)nc1NCc1ccc(N(C)C)cc1 | 24.3
29 | COc1ccccc1N1CCN(CCCCOc2c(OC)cccc2OC)CC1.O=C(O)C(=O)O | -57.9
30 | COc1cc(OC)c(CN2CCCN(C)CC2)cc1Br | 18.1
31 | O=C(COc1ccccc1)Nc1nnc(-c2ccc(Cl)cc2)o1 | 1.95
32 | CCCCN(C)CCC(=O)Nc1ccc(OC)cc1OC | 5.11
33 | Cc1ccc(S(=O)(=O)/N=C(\c2ccccc2)N(C)S(=O)(=O)c2ccc(C)cc2)cc1 | 16.6
34 | CCOC(=O)N/N=C/c1ccc(N(CC)CC)cc1O | -4.68
35 | O=C(C1CCN(S(=O)(=O)c2cccs2)CC1)N1CCN(c2ccccc2O)CC1 | -22.8
36 | COc1ccc(NC(=O)/C=C/c2ccco2)cn1 | 9.17
37 | O=C(c1ccccc1)N1CCC(O)(c2cccnc2)CC1 | 16.1
38 | CCCN(C(=O)c1nc2nc(C)cc(C)n2n1)c1c(N)n(Cc2ccccc2)c(=O)[nH]c1=O | 6.44
39 | Cc1ccc(C(=O)NC2CCCc3ccccc32)cc1[N+](=O)[O-] (stereo not shown) | -16
40 | CCOc1ccccc1NC(=O)CN1C(=O)C(=O)N(Cc2ccco2)C1=O | 8.17
41 | O=C(Nc1ccc(OC(F)(F)C(F)F)c(NC(=O)c2ccc(F)cc2)c1)c1ccc(F)cc1 | 14.6
42 | CN(C(=O)Cc1ccccc1)n1cnnc1 | 11.9
43 | Cc1ccc(C)c(NC(=S)N2CCCCC2CO)c1 (stereo not shown) | 15.9
44 | O=C(NCc1ccccc1)/C(=C\c1ccccc1)NC(=O)c1ccco1 | -21.7
45 | O=C(CNC(=O)c1ccc(Cl)cc1)OCC(=O)N1CCCC1 | 16.7
46 | O=C(CSc1nc2cc(Cl)ccc2s1)c1cc2ccccc2o1 | 17.8

Row | SMILES | hERG current change (%, negative = inhibition) at 10uM [%]
47 | CCOC(=O)C1=C(C)N=c2s/c(=C/c3ccc(OCC(=O)O)c(OC)c3)c(=O)n2C1c1ccc(Cl)cc1 (stereo not shown) | 3.29
48 | COc1ccc(N2C(=O)CC(N(CCc3ccccc3)C(=O)c3ccccc3)C2=O)cc1 (stereo not shown) | -24.5
49 | CC1CC(C(F)(F)F)n2ncnc2N1 (stereo not shown) | -1.96
50 | COCCCN(C(=S)Nc1c(C)cc(C)cc1C)C(C)c1ccccn1 (stereo not shown) | 1.09
51 | CCOC(=O)c1nc2ccccc2s1 | 0.709
52 | Cn1c(N)c(C(=O)c2ccc(F)cc2F)c(=O)n(C)c1=O | 16
53 | O=C(NCc1ccco1)C(c1ccco1)N(Cc1cccs1)C(=O)Cn1nnc2ccccc21 (stereo not shown) | 10.3
54 | COCCNC(=S)N(CCc1c(C)[nH]c2ccc(OC)cc12)Cc1cccnc1 | -3.46
55 | CCCC(CCC)c1nnc(NC(=O)c2ccco2)s1 | -17
56 | Cn1ccc(C(=O)OCC(=O)Nc2cccc3ccccc23)n1 | 65
57 | Cc1c(Cc2ccccc2)c(=O)oc2cc(O)cc(O)c12 | 9.65
58 | COc1ccc(C(C)(C)C)cc1NC(=O)CCCN1C(=O)NC(C)(C)C1=O | -5.94
59 | COc1ccc(OC2CCN(C(=O)Nc3ccc(C)cc3)CC2)cc1 | -11.3
60 | CCOc1ccc(NC(=O)C(C)N2C(=O)c3ccccc3S2(=O)=O)cc1 (stereo not shown) | 2.37
61 | CCCOC(=O)c1c(NC(=O)C2CCCO2)sc(C(=O)OC)c1C (stereo not shown) | 5.12
62 | CCN(CC)CC(=O)NCC1(c2ccccc2)CCCC1 | -0.324
63 | CSCCC(NS(=O)(=O)c1ccc(Br)cc1)C(=O)OCC(=O)NC1CC1 (stereo not shown) | -6.42
64 | C=CCOC(=O)C(=O)/C=C/c1ccc2c(c1)Cc1ccccc1-2 | 2.11
65 | O=C(CSc1ccc(Cl)cc1)c1ccco1 | 8.93
66 | COc1ccccc1-c1nnc(NC(=O)C2=COCCO2)o1 | 14.3
67 | Cc1ccc2nc(Nc3ccccc3)cc(C)c2c1 | -8.52
68 | O=[N+]([O-])c1ccc(N=Cc2ccc(Br)c([N+](=O)[O-])c2)cc1 | -3.59
69 | COc1ccc(N(CC(=O)NCC(C)C)S(=O)(=O)c2ccccc2)cc1 | 13.8

Row | SMILES | hERG current change (%, negative = inhibition) at 10uM [%]
70 | Clc1ccc2oc3c(Cl)ncnc3c2c1 | 6.89
71 | CC(C)c1nnc(NC(=O)CCC(=O)N2CCN(c3ccc(Cl)cc3)CC2)s1 | -18.3
72 | COc1cc(NC(=O)c2cccs2)c(C(=O)OCC(=O)NCc2ccco2)cc1OC | 0.185
73 | OCCCNC(c1ccccc1)c1ccc(O)cc1 (stereo not shown) | 3.52
74 | O=c1c2nnn(Cc3ccc(Cl)cc3)c2ncn1Cc1ccc(F)cc1 | 10.8
75 | O=S(=O)(NCc1cc(-c2ccccc2Cl)no1)c1ccc(Cl)cc1 | 3.07
76 | CSc1ccc(C(=O)C(C)(C)N2CCOCC2)cc1 | -15.5
77 | CCc1ccc(NC(=O)C2CCN(C(=O)N3CCOc4ccccc43)CC2)cc1 | -44.9
78 | Cc1ccccc1NC(=O)CC(=O)c1ccccc1 | 17.1
79 | Cc1nc2c(Cl)cccc2c2c1CC(CBr)O2 (stereo not shown) | -12.2
80 | COc1cccc(CN(C)CC(=O)Nc2ccccc2C(C)C)c1.O=C(O)C(=O)O | -4.48
81 | COc1ccc(-c2noc(C3CCCN(C(=O)c4ccccc4OC)C3)n2)cc1 (stereo not shown) | 3.05
82 | COc1ccccc1NC(=O)CSc1nc(N)c(-c2ccccc2)c(=O)[nH]1 | 9.3
83 | Cn1c(SCC(N)=O)nnc1-c1ccc(S(=O)(=O)N2CCCC2)cc1 | 4.87
84 | COc1ccccc1/C=C/C(=O)NCC(=O)N/N=C(/C)c1ccco1 | 7.74
85 | O=C(CNS(=O)(=O)c1cccs1)N1CCCCC1 | 8.2
86 | CCOC(=O)c1cnc2c(C)cccc2c1Nc1cccc(C(=O)O)c1.Cl | -8.37
87 | O=C(CCNC(=O)C1CCN(S(=O)(=O)c2ccc(F)cc2)CC1)NCc1ccccc1Cl | -12.9
88 | O=C(CSCc1ccc(Cl)cc1)Nc1ccccc1O | 19.2
89 | Cc1c(C(N)=O)c(N)c(C(=O)c2ccccc2)n1-c1ccccc1 | -0.493
90 | O=C(NCc1cccs1)C(Cc1ccccc1)NS(=O)(=O)c1cccs1 (stereo not shown) | -42.9
91 | COc1ccc(CN2CCCC(CO)(Cc3cccc(Cl)c3)C2)cc1OC (stereo not shown) | -63.2
